According to patent publication US5242908A, “Use of benzylphosphonic acid derivatives for the treatment of diseases caused by viruses” (priority 1990, dated 1993):
Values joined by “and” are separate entries in the source; they are usually repeats but may differ in a detail not shown here. Equal entries are not always repeated. Where two headings read alike, the source gives them in different places.

Experiments:
[1] = tested on: Friend leukemia virus (FLV); assay type: in vivo, NMRI mice; details: once per day, 10 days
Influenza A2 = details: twice daily for 2.5 days; for Survivors: groups of 5 mice

Row | SMILES | Average survival time (Influenza A2; po 0.25 mg/kg) [days] | Survivors (Influenza A2; po 0.25 mg/kg) | Average survival time (Influenza A2; po 2.5 mg/kg) [days] | Survivors (Influenza A2; po 2.5 mg/kg) | Survivors (Influenza A2; po 25 mg/kg) | Average survival time (Influenza A2; po 25 mg/kg) [days] | also measured
1 | COP(=O)(Cc1ccccc1C)OC [A, dimethyl 2-methylbenzylphosphonate] | 6.0 | 3 | 7.0 | 4 | 5 | – | FLV Survival rate ([1]; ip 50 mg/kg): 100%; Relative spleen weight ([1]; ip 50 mg/kg): 7.22%; FLV Survival rate ([1]; po 15.0 mg/kg): 100%; Relative spleen weight ([1]; po 15.0 mg/kg): 6.93%; FLV Survival rate ([1]; po 73.5 mg/kg): 100%; Relative spleen weight ([1]; po 73.5 mg/kg): 6.15%; Average survival time (Influenza A2; sc 0.25 mg/kg): 7.0 days; Survivors (Influenza A2; sc 0.25 mg/kg): 2; Average survival time (Influenza A2; sc 2.5 mg/kg): 7.0 days; Survivors (Influenza A2; sc 2.5 mg/kg): 4; Average survival time (Influenza A2; sc 25 mg/kg): 7.0 days; Survivors (Influenza A2; sc 25 mg/kg): 3
2 | CCOP(=O)(Cc1ccc(C(F)(F)F)cc1)OCC [AB, Diethyl 4-trifluoromethylbenzylphosphate] | 9.0 | 4 | 6.0 | 4 | 1 | 7.5 | –
3 | CCOP(=O)(Cc1ccccc1CP(=O)(OCC)OCC)OCC [AC, 1,2-Phenylene-bis(diethyl methylphosphonate)] | – | – | – | – | – | – | Average survival time (Influenza A2; sc 0.25 mg/kg): 6.3 days; Survivors (Influenza A2; sc 0.25 mg/kg): 2; Average survival time (Influenza A2; sc 2.5 mg/kg): 7.0 days; Survivors (Influenza A2; sc 2.5 mg/kg): 1; Average survival time (Influenza A2; sc 25 mg/kg): 6.0 days; Survivors (Influenza A2; sc 25 mg/kg): 4
4 | CCOP(=O)(Cc1cccc(CP(=O)(OCC)OCC)c1)OCC [AD, 1,3-Phenylene-bis(diethyl methylphosphonate)] | – | – | – | – | – | – | Average survival time (Influenza A2; sc 0.25 mg/kg): 7.0 days; Survivors (Influenza A2; sc 0.25 mg/kg): 2; Average survival time (Influenza A2; sc 2.5 mg/kg): 6.5 days; Survivors (Influenza A2; sc 2.5 mg/kg): 3; Average survival time (Influenza A2; sc 25 mg/kg): 7.0 days; Survivors (Influenza A2; sc 25 mg/kg): 4
5 | CCOP(=O)(Cc1ccccc1C(=O)O)OCC [AE, Diethyl 2-carboxybenzylphosphonate] | 7.0 | 2 | 7.0 | 4 | 5 | – | –
6 | O=C(O)c1ccccc1CP(=O)(O)O [AF, 2-Carboxybenzylphosphonic acid] | 10.0 | 4 | – | 5 | 0 | 7.2 | –
7 | CCOP(=O)(Cc1ccc(C#N)cc1)OCC [AL, Diethyl 4-cyanobenzylphosphonate] | 8.0 | 0 | 7.3 | 2 | 5 | – | –
8 | Cc1cn([C@H]2C[C@H](N=[N+]=[N-])[C@@H](CO)O2)c(=O)[nH]c1=O [AZT, azidothymidine, reference compound] | – | – | – | – | – | – | FLV Survival rate ([1]; ip 50 mg/kg): 100%; Relative spleen weight ([1]; ip 50 mg/kg): 5.40%; FLV Survival rate ([1]; po 14.5 mg/kg): 100%; Relative spleen weight ([1]; po 14.5 mg/kg): 1.81%; FLV Survival rate ([1]; po 15.5 mg/kg): 100%; Relative spleen weight ([1]; po 15.5 mg/kg): 3.26%; FLV Survival rate ([1]; po 18.0 mg/kg): 100%; Relative spleen weight ([1]; po 18.0 mg/kg): 6.42%
9 | CCOP(=O)(Cc1cccc(Br)c1)OCC [B, diethyl 3-bromobenzylphosphonate] | – | – | – | – | – | – | FLV Survival rate ([1]; ip 50 mg/kg): 80%; Relative spleen weight ([1]; ip 50 mg/kg): 6.60%
10 | CCOP(=O)(Cc1ccccc1Br)OCC [C, diethyl 2-bromobenzylphosphonate] | 8.0 | 1 | 8.0 | 4 | 4 | 7.0 | FLV Survival rate ([1]; ip 50 mg/kg): 100%; Relative spleen weight ([1]; ip 50 mg/kg): 6.55%; FLV Survival rate ([1]; po 16.0 mg/kg): 100%; Relative spleen weight ([1]; po 16.0 mg/kg): 6.5%; FLV Survival rate ([1]; po 75.0 mg/kg): 100%; Relative spleen weight ([1]; po 75.0 mg/kg): 6.47%
11 | CCOP(=O)(Cc1ccc(Br)cc1)OCC [D, diethyl 4-bromobenzylphosphonate] | 8.0 | 4 | – | 5 | 5 | – | Average survival time (Influenza A2; sc 0.25 mg/kg): 7.0 days; Survivors (Influenza A2; sc 0.25 mg/kg): 4; Average survival time (Influenza A2; sc 2.5 mg/kg): 8.0 days; Survivors (Influenza A2; sc 2.5 mg/kg): 2; Average survival time (Influenza A2; sc 25 mg/kg): 7.0 days; Survivors (Influenza A2; sc 25 mg/kg): 4
12 | CCOP(=O)(Cc1ccccc1C)OCC [E, diethyl 2-methylbenzylphosphonate] | – | – | – | 5 | 5 | – | FLV Survival rate ([1]; ip 50 mg/kg): 90%; Relative spleen weight ([1]; ip 50 mg/kg): 4.83%; FLV Survival rate ([1]; po 16.5 mg/kg): 100%; Relative spleen weight ([1]; po 16.5 mg/kg): 6.94%; FLV Survival rate ([1]; po 77.5 mg/kg): 100%; Relative spleen weight ([1]; po 77.5 mg/kg): 8.54%; Average survival time (Influenza A2; po 250 mg/kg): 2.3 days; Survivors (Influenza A2; po 250 mg/kg): 2; Average survival time (Influenza A2; sc 2.5 mg/kg): 7.0 days; Survivors (Influenza A2; sc 2.5 mg/kg): 3; Average survival time (Influenza A2; sc 25 mg/kg): 6.3 days; Survivors (Influenza A2; sc 25 mg/kg): 2; toxic (printed in the Average survival time column) (Influenza A2; sc 250 mg/kg): toxic; Survivors (Influenza A2; sc 250 mg/kg): 0
13 | CCOP(=O)(Cc1ccc(C)cc1)OCC [G, diethyl 4-methylbenzylphosphonate] | – | 5 | 6.5 | 3 | 1 | 7.7 | –
14 | CCOP(=O)(Cc1ccccc1F)OCC [H, diethyl 2-fluorobenzylphosphonate] | 5.5 | 3 | 8.0 | 4 | 3 | 8.5 | –
15 | CCOP(=O)(Cc1ccccc1Cl)OCC [I, diethyl 2-chlorobenzylphosphoante] | 6.5 | 3 | 6.0 | 4 | 3 | 7.0 | –
16 | CCOP(=O)(Cc1cc(C)ccc1C)OCC [K, diethyl 2,5-dimethylbenzylphosphonate] | 6.0 | 4 | 7.0 | 2 | 3 | 6.5 | FLV Survival rate ([1]; po 15.5 mg/kg): 90%; Relative spleen weight ([1]; po 15.5 mg/kg): 9.02%
17 | Cc1ccccc1CP(=O)(OC(C)C)OC(C)C [L, diisopropyl 2-methylbenzylphosphonate] | 8.0 | 4 | 6.0 | 3 | 5 | – | Average survival time (Influenza A2; sc 0.25 mg/kg): 9.5 days; Survivors (Influenza A2; sc 0.25 mg/kg): 3; Average survival time (Influenza A2; sc 2.5 mg/kg): 6.8 days; Survivors (Influenza A2; sc 2.5 mg/kg): 0; Average survival time (Influenza A2; sc 25 mg/kg): 10.0 days; Survivors (Influenza A2; sc 25 mg/kg): 4
18 | Cc1ccccc1CP(=O)(OCCCl)OCCCl [N, di-(2-chloroethyl) 2-methylbenzylphosphonate] | 8.0 | 4 | 8.0 | 3 | 3 | 6.5 | –
19 | CCOP(=O)(Cc1ccc(Cl)cc1)OCC [P, diethyl 4-chlorobenzylphosphonate] | 8.5 | 3 | 7.0 | 4 | 3 | 6.5 | –
20 | CCOP(=O)(Cc1ccccc1I)OCC [R, diethyl 2-iodobenzylphosphonate] | – | – | – | – | – | – | Average survival time (Influenza A2; sc 0.25 mg/kg): 9.0 days; Survivors (Influenza A2; sc 0.25 mg/kg): 3; Average survival time (Influenza A2; sc 2.5 mg/kg): 7.0 days; Survivors (Influenza A2; sc 2.5 mg/kg): 4; Average survival time (Influenza A2; sc 25 mg/kg): 6.8 days; Survivors (Influenza A2; sc 25 mg/kg): 0
21 | CC(C)OP(=O)(Cc1ccc(I)cc1)OC(C)C [T, diisopropyl 4-iodobenzylphosphonate] | – | – | – | – | – | – | Average survival time (Influenza A2; sc 0.25 mg/kg): 7.0 days; Survivors (Influenza A2; sc 0.25 mg/kg): 3; Average survival time (Influenza A2; sc 2.5 mg/kg): 8.0 days; Survivors (Influenza A2; sc 2.5 mg/kg): 4; Average survival time (Influenza A2; sc 25 mg/kg): 7.0 days; Survivors (Influenza A2; sc 25 mg/kg): 4
22 | CCOP(=O)(OCC)C(C)c1ccccc1 (stereo not shown) [V] | 7.0 | 4 | 9.0 | 3 | 3 | 7.5 | –
23 | CCOP(=O)(Cc1cccc(C(=O)OC)c1)OCC [X] | 7.0 | 3 | 6.0 | 4 | – | – | –
24 | CCOC(=O)Cc1ccccc1CP(=O)(OCC)OCC [Y] | 8.3 | 2 | 6.7 | 2 | 4 | 8.0 | –
25 | CCOP(=O)(Cc1ccc(OC)cc1)OCC [Z, Diethyl 4-methoxybenzylphosphonate] | 7.0 | 3 | 7.0 | 4 | 1 | 7.3 | –
26 | NC12CC3CC(CC(C3)C1)C2 [amantadine, reference compound] | – | – | – | – | – | – | Survivors (Influenza A2; po 80 mg/kg): 5; Survivors (Influenza A2; sc 80 mg/kg): 5
27 | Cc1ccc(C(=O)Nc2ccc(S(=O)(=O)O)c3cc(S(=O)(=O)O)cc(S(=O)(=O)O)c23)cc1NC(=O)c1cccc(NC(=O)Nc2cccc(C(=O)Nc3cc(C(=O)Nc4ccc(S(=O)(=O)O)c5cc(S(=O)(=O)O)cc(S(=O)(=O)O)c45)ccc3C)c2)c1 [suramin, Suramin, reference compound] | – | – | – | – | – | – | FLV Survival rate ([1]; ip 50 mg/kg, 50 mg/kg): 100% and 60%; Relative spleen weight ([1]; ip 50 mg/kg, 50 mg/kg): 6.70% and 6.17% and 4.12%
